This data set has as its system ATP. Briefly: switch fluorescence ratio, 500 uM ATP over buffer (Cy3 cluster intensity, sum of 5 cycles each) (fold (ratio)); higher = stronger signal-on switching upon ATP binding; sequences stand for … in TCGTCGGCAGCGTCAGATGTGTATAAGAGACAGTTTTTTTTTTTTTTTTTTTTTTTTT…TC. The following applies: aptamer strand: ATP DNA aptamer (quencher-CACCTGGGGGAGTATTGCGGAGGAAGG + anchor), 100 nM annealed; ATP concentration: 500 uM; one replicate. The method in brief:
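After annealing to 100 nM quencher-labelled ATP aptamer, Cy3-labelled switching-strand clusters on a modified Illumina MiSeq flow-cell were imaged in selection buffer. A second image followed after 15 min with 500 uM ATP at 22 °C, and five such buffer/ATP cycles were done, each separated by NaOH stripping and re-annealing. The fluorescence ratio, averaged per switch-domain sequence, is summed target-cycle over summed buffer-cycle Cy3 intensity per cluster, with clusters outside 100-1000 RFU excluded.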

Sequences with one replicate were seen in a single cluster, so their values are uncertain.
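Note: ATP exposure 15 min at 22 °C before imaging.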

Take ACCTCCAAAG: the switch fluorescence ratio was 2.3.

In the case of GGGTGAATAG, the switch fluorescence ratio amounted to 1.07.

For the sequence CCGATCGTC, the switch fluorescence ratio was 2.68. To TAGAGAAAGT belongs 0.978. The value for CCTAGGTGGT was 1.03; that for GATGTCCTTT was 0.988. For the sequence GGACCGAGTA, the switch fluorescence ratio was determined as 1.05. With AAGGACGT, the switch fluorescence ratio was 1.09. The value for AGGTGCACAG was 1.01; that for ATGGCGCAGG was 0.963; that for GAATTGTGTT was 1.01. To ACGGTTTTCT belongs 0.971. To TCTATAGAG belongs 0.979; to GTAGATGTAA, 1.02; to GATTTCGGCA, 0.994. GCGTACGTGT: the switch fluorescence ratio amounted to 0.994. For the sequence GGTTACGATT, the switch fluorescence ratio was 1.03. To TCTAGACTTT belongs 1; to CAAGCCCTGT, 0.988. Consider GCACTCTTTT, for which the switch fluorescence ratio worked out at 0.983.

As to GCGGATATCC, the switch fluorescence ratio came to 1.09. Consider AAAACAACTA, for which the switch fluorescence ratio was 0.988. To CGCGACCGCT belongs 1.09; to TGCCGTTACA, 1.

Consider TTTTCGTCGA, for which the switch fluorescence ratio amounted to 1.03.

In the case of GGCTTTGTAA, the switch fluorescence ratio came out at 1. On to TTCTACGCCT, for which the switch fluorescence ratio was found to be 1.74. With ATCTTCGAGA, the switch fluorescence ratio is 1.01.

As to GGGCCTATTG, the switch fluorescence ratio stood at 0.986. For GGTTGATTGC, the switch fluorescence ratio was found to be 1.03. For CTAAGTTGAA, the switch fluorescence ratio was 1.98. TCCATTAAGG: the switch fluorescence ratio was 0.989. In the case of CATATCCTCT, the switch fluorescence ratio came out at 1.04. Take CCCGTTGGGA: the switch fluorescence ratio came out at 1.01.

In the case of GATTGACCAA, the switch fluorescence ratio was determined as 0.981.

With AGACCGTGCA, the switch fluorescence ratio came to 1.03. To GCCCATCGAT belongs 0.967; to CATGATGGGA, 0.994; to GTACTCGCAT, 1.34. To TTCAGCATGG belongs 0.976; to GCGCGATTGG, 1.01; to AGGCGAAAGT, 1.04. The value for AAAACAGCT was 0.992; that for CCTGATGAGC was 1.34; that for GCGAGTACTG was 1.04. Regarding TACTAGTGCG, the switch fluorescence ratio is 0.981. To TAGGCGGCCT belongs 1.02.

GCGGCCGGAG: the switch fluorescence ratio was 1. As for CGGCGGTAGG, the switch fluorescence ratio was 1.01. To TTAGCCGGG belongs 0.989; to GTGGTTACGA, 1.02. As for TTCTGGAGAG, the switch fluorescence ratio is 1.01. Consider GGCGCAGTCT, for which the switch fluorescence ratio worked out at 0.939. To GTTCCCGGT belongs 1.02; to GAGTTGAGGC, 0.972; to AACCGGGCCG, 1.03. The value for CAAAAATCAC was 1.01.

Consider TCCGTGTTAC, for which the switch fluorescence ratio is 4.66. To TCGAAAAGTG belongs 1; to TCACACAGCA, 1.07. With AGTCTATTCC, the switch fluorescence ratio was 1.08. The value for GTTCTACCCC was 1.12; that for TGATACGAGA was 1.02; that for ATAGGTGTCT was 1.04.

With ATGGACAAGA, the switch fluorescence ratio was found to be 1.02.

As for GGTAGTTATG, the switch fluorescence ratio was 0.965. To ATCGAATCAT belongs 0.985; to TATTATTTCT, 1. For ATCAATTTTC, the switch fluorescence ratio amounted to 0.972. Consider AACCCAGGAT, for which the switch fluorescence ratio worked out at 1.15. To AGGTCTGGAC belongs 1.01; to AATTCTGAGC, 1.01; to TGAGAAGTTC, 0.985.

As to CTTGCATAGA, the switch fluorescence ratio came to 0.995. The value for GGCTAGACTG was 0.938. To CTGTAATTTG belongs 0.942; to GTTGTCAAGG, 0.999.

For the sequence CGCGCCACG, the switch fluorescence ratio worked out at 1.03. To TAGGGTTATT belongs 1.02. As for ATTGATCAGA, the switch fluorescence ratio amounted to 1.02. On to GGGAAGCGGC, for which the switch fluorescence ratio is 0.988. The value for TTTAGGCAGT was 1.03; that for CGTTGGAGTT was 1.02; that for GCACCCATTA was 1.02. Consider ATCGTCTATA, for which the switch fluorescence ratio amounted to 0.978. To GTTGTTGTCA belongs 1; to CCTAGAAGTG, 1.01.

With GGCCAGAAAA, the switch fluorescence ratio was found to be 1. With AGTAGTTCCT, the switch fluorescence ratio was 1.02. For AAAGGTCAA, the switch fluorescence ratio was determined as 1.02. For the sequence TGCAGCGGGC, the switch fluorescence ratio was determined as 1.14. The value for ATTTAAGTG was 0.997; that for TCTCAGCCAT was 1.13; that for TGAAACGT was 1.05. TCCGAGTCC: the switch fluorescence ratio came to 1.29.

CACGCGGACG: the switch fluorescence ratio came out at 1.01. The value for TGACGAAGCT was 1.19. With TTAAGAGGAG, the switch fluorescence ratio was determined as 1.02. The value for CCGGGGTTAA was 2.56.

Consider CAGCTTTGAC, for which the switch fluorescence ratio amounted to 1.16. In the case of TCAATTGTCT, the switch fluorescence ratio stood at 1.02. The value for TCGGCAAAC was 2.32; that for CAGTATCAAT was 1.02; that for CGGCCGCTAG was 2.13. Consider ACGTAAACAC, for which the switch fluorescence ratio was 1.2. With CGCACTCCTG, the switch fluorescence ratio is 1.51.

As for AGGACCCACT, the switch fluorescence ratio was 1.26. To TTTGCTTGA belongs 1; to AGCAATAAAG, 1.26.

For the sequence GCAAAAAGGG, the switch fluorescence ratio worked out at 1.01.

In the case of AGAAAGGTGG, the switch fluorescence ratio is 1.01. To TGCAAT belongs 1.36; to TTAGCAGGAT, 1; to GGCTAAGCT, 1. The value for GGGTTCCTTC was 1.03.

For GGTGCCGCTT, the switch fluorescence ratio was determined as 1.01. The value for CGAATTAAGA was 0.996; that for TCATTTACTC was 1.05. In the case of ATCAATATGG, the switch fluorescence ratio is 0.972.

As for GAAACTTTTT, the switch fluorescence ratio is 0.999.

The record behind these values is the supplement of paper PMC10126150.
